Source: article PMC9572397, “Garcinia cambogia Phenolics as Potent Anti-COVID-19 Agents: Phytochemical Profiling, Biological Activities, and Molecular Docking” (Plants, 2022)
Where two headings read alike, the source gives them in different places.

How the values were obtained:
[1] = system: Human Coronavirus (COVID-19); assay: microbe, parasite or virus in culture; conditions: unidentified human coronavirus; for log reduction at 1 µM / log reduction at 10 µM: read-out: Log Difference
[2] = system: Human Coronavirus (COVID-19); conditions: Table S4

| Structure (SMILES) | inhibition at 1 µM ([1]; Table S3) [%] | inhibition at 10 µM ([1]; Table S3) [%] | log reduction at 1 µM [1] | log reduction at 10 µM [1] | inhibition at 0.001 µM ([1]; Table S4, 0.001 µM) [%] | inhibition at 0.01 µM ([1]; Table S4, 0.01 µM) [%] | inhibition at 0.1 µM ([1]; Table S4, 0.1 µM) [%] | inhibition at 1 µM ([1]; Table S4) [%] | inhibition at 10 µM ([1]; Table S4) [%] | EC50 ([1]; Table S4, Conc. column in µM) [µM] | EC50 ([1]; serial concentration 10, 1, 0.1, 0.01, 0.001 μM) [µM] | Log diff ([2]; 0.001 µM) | Log diff ([2]; 0.01 µM) | Log diff ([2]; 0.1 µM) | Log diff ([2]; 1 µM) | Log diff ([2]; 10 µM) |
| --- | --- | --- | --- | --- | --- | --- | --- | --- | --- | --- | --- | --- | --- | --- | --- | --- |
| O=c1c(O)c(-c2ccc(O)c(O)c2)oc2cc(O)cc(O)c12 [Compound 1, quercetin] | 63.7 | 87.9 | 0.441 | 0.918 | – | – | – | – | – | – | – | – | – | – | – | – |
| O=c1cc(-c2ccc(O)c(-c3c(O)cc(O)c4c(=O)cc(-c5ccc(O)cc5)oc34)c2)oc2cc(O)cc(O)c12 [Compound 2, amentoflavone] | 50.4 | 85.1 | 0.305 | 0.827 | – | – | – | – | – | – | – | – | – | – | – | – |
| C[C@@H]1O[C@@H](OC[C@H]2O[C@@H](Oc3c(-c4ccc(O)c(O)c4)oc4cc(O)cc(O)c4c3=O)[C@H](O)[C@@H](O)[C@@H]2O)[C@H](O)[C@H](O)[C@H]1O [Compound 4, rutin] | 23.7 | 65.5 | 0.118 | 0.462 | – | – | – | – | – | – | – | – | – | – | – | – |
| O=C(O)c1cc(O)c(O)c(O)c1 [Compound 8, gallic acid] | 61.1 | 92 | 0.411 | 1.1 | – | – | – | – | – | – | – | – | – | – | – | – |
| CCC(CC)COC(=O)[C@H](C)N[P@](=O)(OC[C@H]1O[C@@](C#N)(c2ccc3c(N)ncnn23)[C@H](O)[C@@H]1O)Oc1ccccc1 [Remdesivir, reference compound] | 95.4 | 98.7 | 1.34 | 1.88 | 17.7 | 55.3 | 92.7 | 95.4 | 98.1 | 0.00818 | 0.0081 | -0.08451 | -0.3501 | -1.135 | -1.337 | -1.714 |
